These results are taken from ChEMBL document CHEMBL1201862, “PubChem BioAssay data set” (2004).

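Following 48 hours of exposure in 96-well plates, responses at five concentrations were used to interpolate endpoints linearly. At the GI50, growth is halved.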 Active and inactive are the calls of the source. Cut-off read from the data, not from the text of the source: active = GI50 up to about 1.1 µM and inactive = higher.

For this assay, the system named is NCI-H322M. Description: NCI-60 cell line screen, 48 h.
Consider `O=C(O)c1cc(/C=C/c2ccc(O)c(O)c2)ccc1O`, for which the GI50 is inactive: > 100 µM.
The result for `Cc1[nH]c2ccccc2c1-c1cc(-c2cc(-c3c(C)[nH]c4ccccc34)on2)no1` reads inactive: > 100 µM; that for `CCOC(=O)Cn1c(C(F)(F)F)nc2nc(Cl)c(Cl)nc21`, inactive: 19.5 µM.
The result for `Cc1nc(N)nc(N)c1CCCc1ccccc1` reads inactive: 29 µM; that for `CCN(CC)CC[n+]1ccc2c(C)c3[nH]c4ccc(O)cc4c3c(C)c2c1`, inactive: 3.38 µM.
The value for `O=C1ON(Cc2ccccc2)C(c2ccccc2)N1c1ccccc1` (stereo not drawn) was inactive: > 100 µM; that for `CCC(C(=O)c1ccccc1)C(CCCC(=O)Nc1c(C)cccc1C)N=O` (stereo not drawn) was inactive: > 100 µM.
For `COC(=O)NC1(NC(=O)OC)NC(=O)c2cc(OC)c(OC)c(OC)c2N1`, the GI50 was inactive: 32 µM.
For `CCOC(=O)Cn1c(=O)n(C)c(=O)c2c1ncn2Cc1ccccc1`, the GI50 was inactive: > 100 µM.
`CCC/N=C(/NC(=O)c1ccc(Cl)cc1)SC`: the GI50 is inactive: > 100 µM.
The result for `Cc1c(N2C(=O)C(Cl)C2c2ccc(Cl)cc2)c(=O)n(-c2ccccc2)n1C` (stereo not drawn) reads inactive: > 100 µM.
The result for `O=C1NC(Nc2ccccc2Cl)=N/C1=C\c1c(Cl)cccc1Cl` reads inactive: 34 µM; that for `O=C1C(/C=N/CCc2c[nH]c3ccccc23)C(C(F)(F)F)=NN1c1nc2ccccc2s1` (stereo not drawn), inactive: 28.3 µM.
The result for `O=C(Nc1ccc(Br)cc1)c1c(-c2ccccc2)c2ccc(O)cc2oc1=O` reads inactive: > 10 µM; that for `O=C(Nc1ccc(Cl)cc1)c1cc(S(=O)(=O)Nc2n[nH]c(=O)[nH]2)c(SSc2cc(Cl)c(C(=O)Nc3ccc(Cl)cc3)cc2S(=O)(=O)Nc2n[nH]c(=O)[nH]2)cc1Cl`, inactive: > 100 µM.
Take `CC(C)NC(=O)OCc1c(COC(=O)NC(C)C)c(-c2cc[n+](COC(=O)C(C)C)cc2)n2c1CCC2`: the GI50 was inactive: > 100 µM.
The value for `N#C/C(N)=C(C#N)/N=C/Nc1ccc(N)cc1` was inactive: 42.1 µM; that for `O=C(ON=C1c2ccccc2C(Br)C(Br)c2ccccc21)c1ccccc1` (stereo not drawn) was inactive: 16.4 µM.
The result for `Sc1cnnc2ccc(Br)cc12` reads inactive: 59.7 µM; that for `CC(C)=CCc1c(O)c(CC=C(C)C)c2oc3c(c(=O)c2c1O)C(C=C(C)C)Oc1cc(O)ccc1-3` (stereo not drawn), inactive: 12.7 µM.
The result for `O=C1/C(=C/c2ccccc2)NC(=S)N1CN1CCCCC1` reads inactive: > 100 µM.
As to `Cc1ccc(C2(N3CCOCC3)OC(C)(C)c3cccc4cccc2c34)cc1` (stereo not drawn), the GI50 is inactive: 16.8 µM.
The result for `FC(F)(F)C1(Br)C(c2ccccc2)=C1c1ccccc1` reads inactive: 29.5 µM; that for `O[C@H]1[C@H](O)[C@@H](O)[C@@]2(O)CC[C@@H]1N2`, inactive: > 100 µM; that for `COC(=O)C1(Cc2ccc3c(c2)CCC3)Cc2ccccc2C1=O` (stereo not drawn), inactive: 32.4 µM.
The result for `COc1cc2c(cc1Cc1c(F)cccc1Cl)nc(-c1c(F)cccc1Cl)n2Cc1c(F)cccc1Cl` reads inactive: 28.3 µM.
The value for `Nc1ccc2c(c1)NC(=O)[C@@H]1CCCN1C2=O` was inactive: > 100 µM.
With `C=C1C(=O)OC2C3OC(C)(CCC(O)C3COC(C)=O)CC(OC(=O)/C(=C/C)COC(C)=O)C12` (stereo not drawn), the GI50 is inactive: 10.8 µM.
The value for `Cc1csc(NNC(=O)Nc2ccccc2)n1` was inactive: > 100 µM; that for `CCCCCC[C@H]1C(=O)O[C@H](C)[C@H](NC(=O)c2cccc(NC=O)c2OC)C(=O)O[C@@H](C)[C@@H]1OC(=O)C(C)CC.CCCCCC[C@H]1C(=O)O[C@H](C)[C@H](NC(=O)c2cccc(NC=O)c2OC)C(=O)O[C@@H](C)[C@@H]1OC(=O)CC(C)C` (stereo partly drawn) was inactive: 24.9 µM; that for `O=CC12C3CCC1C2C(=O)C3` (stereo not drawn) was inactive: > 100 µM.
The result for `COC(=O)c1scc(N)c1-n1ccc(=O)[nH]c1=O` reads inactive: > 100 µM; that for `Cc1cc(=O)n(-c2ccccc2C)c(C)n1`, inactive: > 100 µM.
The value for `C=C1CC(C/C=C(\C)CC2CC(=C)C(=O)O2)OC1=O` (stereo not drawn) was inactive: > 100 µM; that for `CC(C)=CCc1c(O)ccc2c1OC1c3ccc(O)c(CC=C(C)C)c3OCC21` (stereo not drawn) was inactive: 13.6 µM; that for `CC(C)[C@@H](C)[C@@]1(C)C[C@@H]1[C@@H](C)[C@H]1CC[C@@H]([C@@H]2CC=C3C[C@@H](O)CC[C@]3(C)C2=O)[C@]1(C)CCO` was inactive: 13 µM.
As for `O=C1C=C(Nc2ccc(S(=O)(=O)Nc3nccs3)cc2)c2ccccc2C1=O`, the GI50 is inactive: 44.9 µM.
The result for `COc1nc2cccc(C(O)c3ccccc3)c2nc1-c1ccccc1` (stereo not drawn) reads inactive: 13.7 µM; that for `CC(C)[C@H](NC(=O)[C@@H](O)[C@H](N)Cc1ccccc1)C(=O)N[C@@H](Cc1ccccc1)C(=O)O`, inactive: > 100 µM; that for `C[n+]1cn(-c2nc3ccccc3nc2[N-]S(=O)(=O)c2ccccc2)c2ccccc21`, inactive: > 100 µM.
With `CN(CCNC(=O)c1nn(-c2ccccc2)c2c1ccc1ccccc12)CCNC(=O)c1nn(-c2ccccc2)c2c1ccc1ccccc12`, the GI50 is inactive: 3.1 µM.
Regarding `COc1ccc(/C(=N\NC(=N)N)C(c2ccc(OC)cc2)C2OC(=O)c3ccccc32)cc1` (stereo not drawn), the GI50 was inactive: > 100 µM.
Take `O=[N+]([O-])c1ccc(C2c3c(O)nc(O)nc3Oc3nc(O)nc(O)c32)cc1`: the GI50 is inactive: > 100 µM.
The result for `N#COc1ccc(Oc2ccccc2)cc1` reads inactive: > 100 µM; that for `O=C(O)c1cc2sc(C(=O)O)cc2s1`, inactive: > 100 µM.
The value for `COc1ccc(C[C@H](N)C(=O)N2C[C@H](CO)C[C@H](n3cnc4c(N(C)C)ncnc43)C2)cc1` was inactive: > 100 µM.
The value for `CCO/C=N\C1=C(C#N)SC2=N/C(=C\c3ccco3)C(=O)N21` was inactive: > 100 µM; that for `N#CC(C(=O)CCC(=O)Nc1ccc(Cl)c(Cl)c1)c1ccc(Cl)cc1` (stereo not drawn) was inactive: > 100 µM; that for `Cc1c(C)c(S(=O)(=O)N(CCCCCN)OCCCN)c(C)c2c1OC(C)(C)CC2` was inactive: 7.89 µM.
On to `N#CC(c1cc(Cl)ncn1)c1nc2cc(C(F)(F)F)ccc2s1` (stereo not drawn), for which the GI50 was inactive: 6.21 µM.
The result for `COC(=O)C1=C(c2ccc(OC)c(OC)c2)OC(c2cc(OC)c(OC)c(OC)c2)C1` (stereo not drawn) reads inactive: > 100 µM; that for `N#CC1(Cc2ccc(N)cc2)c2ccccc2C=CN1C(=O)c1ccccc1` (stereo not drawn), inactive: > 100 µM.
For the compound `N#CCC(=O)Nn1c(CC#N)nnc1Cc1ccccc1`, the GI50 was inactive: > 100 µM.
The value for `O=C(/C=C1\Nc2ccc([N+](=O)[O-])cc2N\C1=C/C(=O)c1ccc(F)cc1)c1ccc(F)cc1` was inactive: > 100 µM; that for `N#C/C(N)=N/c1ccccc1` was inactive: > 100 µM; that for `Cc1csc2[n+]1C(=O)/C(=C\c1ccc([N+](=O)[O-])cc1)S2` was inactive: 25.5 µM.
The value for `COc1ccc(-n2nnc3c(C#N)c(C)c(-c4ccccc4)n3c2=O)cc1` was inactive: 4.47 µM.
The result for `C=C1C(=O)OC2CC(=C)C3CC=C(C)C3CC12` (stereo not drawn) reads inactive: > 100 µM; that for `O=C(/C=C/c1cccc(Oc2ccccc2)c1)NCc1ccc(C(=O)NCCc2ccccc2)cc1`, inactive: > 100 µM; that for `CN1CN(c2ccccc2)C2(CCN(CCCN(C)c3ccc(F)cc3)CC2)C1=O`, inactive: 17.9 µM.
Consider `Cc1cccc(C)c1Nc1nc(C)c(C(=O)CC(=O)C(=O)Nc2c(C(C)C)cccc2C(C)C)s1`, for which the GI50 was inactive: > 100 µM.
Turning to `CSC1=N/C(=C\c2ccco2)C(=O)N1CN1CCOCC1`, the GI50 is inactive: > 100 µM.
As to `O=C(OCCOCBr)c1ccccc1`, the GI50 is inactive: > 100 µM.
The result for `C=C(C)CC1=C(C(=S)NCCO[Si](C)(C)C(C)(C)C)C(OCC)(OCC)C1=O` reads inactive: 19.3 µM; that for `Cc1[nH]c2c(C)cccc2c1C1Cc2ccccc2N1` (stereo not drawn), inactive: 25.4 µM; that for `Cn1nc(-c2ccc(S(=O)(=O)N/C(=N/c3ccc(Cl)cc3)NN)s2)cc1C(F)(F)F`, inactive: 15.8 µM.
The value for `O=C1/C(=C/c2ccc(Cl)cc2)N=C(c2ccccc2)N1c1nc2ccc(Sc3ccccc3)cc2[nH]1` was inactive: 38 µM; that for `Fc1cccc2nc(-c3ccccc3)cc(OCc3ccccc3)c12` was inactive: 97.3 µM; that for `CN(c1ccc(Cl)cc1)S(=O)(=O)c1cccc([N+](=O)[O-])c1` was inactive: > 100 µM.
The result for `COc1cc2c(cc1OC)C(C(CBr)CBr)N(C1CCCC1)CC2` (stereo not drawn) reads inactive: > 100 µM; that for `O=c1cc(NNc2cccc(F)c2)[nH]c(=O)[nH]1`, inactive: > 100 µM; that for `COC(=O)c1cc2ccc(N)nc2[nH]c1=O`, inactive: > 100 µM.
For `CCOC(=O)C(C(=O)OCC)=C1N[C@H](C(=O)OCC)CS1`, the GI50 is inactive: > 100 µM.
The value for `N#CC1(CCCI)CCCC1` was inactive: 13.1 µM; that for `CN/C(=N\n1cnnc1)OC` was inactive: > 100 µM; that for `COC(=O)C/N=C1\NC(=S)N(Cc2ccc(OC)cc2)C12CCCC2` was inactive: > 100 µM.
For the compound `Cc1ccc(N2C(=O)C3CSCN3C2=O)cc1` (stereo not drawn), the GI50 is inactive: > 100 µM.
The result for `Cc1ccc(S(=O)(=O)NC(=O)NCC(=O)NCC(=O)O)cc1` reads inactive: > 100 µM; that for `O=S(=O)(O)c1cc(O)c2c(/N=C\c3ccccc3O)cc(S(=O)(=O)O)cc2c1`, inactive: > 100 µM.
The result for `C1C[N+]23CCC[N+]2(C1)CCC3` (stereo not drawn) reads inactive: > 100 µM.
With `c1ccc(-c2nc(-c3ccccc3)c(-c3ccccc3)[nH]2)cc1`, the GI50 is inactive: > 100 µM.
The result for `Cc1cccc(N(CC(=O)O)S(=O)(=O)c2ccccc2)c1` reads inactive: > 100 µM; that for `C=CCc1cc(-c2cc(CC=C)c(O)c(CN(CC)CC)c2)cc(CN(CC)CC)c1O`, inactive: 48.6 µM.
